Laboratory results published in PubChem BioAssay AID894 (National Center for Advancing Translational Sciences (NCATS), 2007).
About 6,500 (4.3%) of roughly 150,000 compounds were called active. Inconclusive means that the source gave no clear call. Such entries were picked first, then a sample of the others. The call rests on the fitted dose curve; in most records, active means well fitted inhibition curve with a large enough effect (not every such curve was filed as active); inconclusive means small, poorly fitted or top-dose-only effect, or another doubt; inactive means no such curve, though single readings can be large or run the other way. No potency is given beside an inconclusive call; the fits are too rough.

Molecular target: 15-hydroxyprostaglandin dehydrogenase [NAD(+)] (Homo sapiens) (UniProt P15428)
Assay: qHTS Assay for Inhibitors of HPGD (15-Hydroxyprostaglandin Dehydrogenase)
Conditions: purified HPGD, NADH fluorescence kinetic, PGE2 substrate; activity change, negative = inhibition: active compounds read low
Summary of the method: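 NADH formation kinetics: reaction with 30 uM PGE2 and 1 mM NAD+ (final), 20 nM enzyme, Tris-HCl pH 8 with Tween 20, after 15 min compound preincubation at room temperature. Fluorescence change, last versus first of five reads.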
On the % scale 0 is the no-effect control and ±100 the full control effect; potency means the concentration at half of the fitted maximal effect; tags describe the fitted curve by direction and shape.

Sequence of UniProt P15428 (P15428 whole entry, looked up): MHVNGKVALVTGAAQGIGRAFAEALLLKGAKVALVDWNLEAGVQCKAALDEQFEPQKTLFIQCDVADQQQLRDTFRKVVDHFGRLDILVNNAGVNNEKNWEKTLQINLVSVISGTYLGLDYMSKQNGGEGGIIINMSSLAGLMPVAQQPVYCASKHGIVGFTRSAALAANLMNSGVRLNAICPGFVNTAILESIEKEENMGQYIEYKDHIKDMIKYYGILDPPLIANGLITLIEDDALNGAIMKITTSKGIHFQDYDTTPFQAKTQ

| SMILES | Potency | activity change, negative = inhibition |
| --- | --- | --- |
| O=C(Nc1ccccc1)c1ccc2nc(-c3ccco3)c(-c3ccco3)nc2c1 | active: 5.01 µM | – |
| CCCc1c(C)nc2ccc(OC)cc2c1SCCC(=O)O | inconclusive [inhibitor, single point] | – |
| O=c1c(C(c2ccc(O)cc2)c2c(O)nc3n(c2=O)CCCS3)c(O)nc2n1CCCS2 | inconclusive [inhibitor, single point] | – |
| Cc1cc(C)n2cc(CSCc3ccccc3)nc2n1 | inconclusive [inhibitor, partial curve] | – |
| O=C(O)CCC(=O)N1CCN(c2ccccn2)CC1 | inconclusive [inhibitor, single point] | – |
| O=C(CSc1ccccc1[N+](=O)[O-])NC1CCS(=O)(=O)C1 (stereo not drawn) | – | inactive: -13.3% |
| Cc1ccc(Sc2c(C=O)c3ccccc3n2C)cc1 | – | inactive: -15.3% |
| COC(=O)[C@@]1(Cc2ccccc2)[C@H]2c3cc(C(=O)N4CCCC4)n(CC4CC4)c3C[C@H]2CN1C(=O)c1ccccc1 | – | inactive: -9.7% |
| Cc1cc(C)cc(OCC(=O)NCC2CCCO2)c1 (stereo not drawn) | active: 15.8 µM | – |
| Cc1nnc(C)n1N1C(=O)c2cccc3cccc(c23)C1=O | inconclusive [inhibitor, partial curve] | – |
| Cc1cc(C(F)(F)F)nn1Cc1n[nH]c(=S)n1-c1ccc(Cl)cc1 | – | inactive: -9.45% |
| COc1ccc(C(=S)N2CCCCCC2)cc1 | active: 15.8 µM | – |
| CC(C(=O)O)N1C(=O)CSc2ncccc21 (stereo not drawn) | – | inactive: -6.4% |
| COc1ccc(CN2CCn3ncc(C(=O)Nc4ccc(Cl)cc4Cl)c3C2=O)cc1 | inconclusive [inhibitor, partial curve] | – |
| CC(C)NC(=O)NC(=O)COC(=O)c1ccccc1Oc1ccccc1 | – | inactive: 0.243% |
| Nc1cc(C(=O)O)c(Oc2ccc(Cl)cc2Cl)cc1C(=O)O | inconclusive [inhibitor, partial curve] | – |
| CC(=O)Nc1ccc(-c2csc(NCc3ccco3)n2)cc1 | inconclusive [inhibitor, partial curve, poor fit] | – |
| COC(=O)/C=C\c1cc(O)ccc1O | active: 2.24 µM | – |
| CC1=CC(=O)C2C(C)(C)CCC[C@@]2(C)[C@@]1(O)CCc1ccoc1 (stereo partly drawn) | – | inactive: -8.5% |
| c1ccc(Cn2cnc3ccccc32)cc1 | – | inactive: 1.52% |
| Cc1ccc(/C(=N\O)c2oc3c(C)c4oc(=O)cc(C)c4cc3c2C)cc1 | inconclusive [inhibitor, partial curve] | – |
| Cc1ccc2[nH]c3c(N4CCOCC4)ncnc3c2c1 | inconclusive [inhibitor, partial curve] | – |
| CCN(CC)S(=O)(=O)c1ccc2nc(NC(=O)c3cccs3)sc2c1 | inconclusive [inhibitor, single point] | – |
| CCN(CC)C(=O)c1sc(NC(=O)c2ccoc2C)c(C(=O)OC)c1C | active: 14.1 µM | – |
| CCOC(=O)N1N=C(c2ccccc2)CC1(O)C(F)(F)F (stereo not drawn) | – | inactive: -2.8% |
| CC(C)(C)n1nnnc1C(c1cc2cc3c(cc2[nH]c1=O)OCO3)N1CCN(c2ccccc2)CC1 (stereo not drawn) | inconclusive [inhibitor, partial curve] | – |

| SMILES | Potency | activity change, negative = inhibition |
| --- | --- | --- |
| Clc1cccc(-c2ccc(/C=N/n3cnnc3)o2)c1 | inconclusive [inhibitor, partial curve] | – |
| CC(=O)Nc1ccc(C(=O)OCC(=O)N(Cc2ccccc2)C(C)(C)C)cc1 | – | inactive: -4.18% |
| O=C(O)c1cccc(-n2cccc2/C=C2\SC(=O)N(Cc3ccccc3F)C2=O)c1 | inconclusive [inhibitor, partial curve] | – |
| COc1ccc(OC)c(CN(CCN2CCOCC2)C(=O)Nc2ccccc2)c1 | – | inactive: -1.07% |
| Cc1c(N=C2NC(=O)/C(=C/c3ccc(O)cc3)S2)c(=O)n(-c2ccccc2)n1C | – | inactive: -23.1% |
| O=C(N/N=C\c1ccc(-c2ccc([N+](=O)[O-])cc2)o1)c1ccc2c(c1)OCO2 | – | inactive: -13.4% |
| O=C(CN1C(=O)/C(=C\c2ccc(C(F)(F)F)cc2)Sc2ccccc21)NCc1ccco1 | – | inactive: 33.1% |
| O=C(c1cc2ccccc2oc1=O)N(Cc1ccccc1)Cc1ccc2c(c1)OCO2 | inconclusive [inhibitor, single point] | – |
| CCN(CC)CCn1c(-c2ccccc2)nc2c(NCCO)nc(C)nc21 | inconclusive [inhibitor, partial curve] | – |
| COc1ccc(Oc2ncc3nc(-c4cc(F)cc(F)c4)c(=O)n(CCC#N)c3n2)cc1 | inconclusive [inhibitor, partial curve] | – |
| Cc1cc(C)nc(SCc2cc(=O)c(OC(=O)c3cc([N+](=O)[O-])ccc3Cl)co2)n1 | inconclusive [inhibitor, single point] | – |
| CC(C)NC1=C(Cl)C(=O)c2ccccc2C1=O | inconclusive [inhibitor, partial curve] | – |
| O=C(/C=C/c1ccc(F)cc1)NCc1ccco1 | active: 25.1 µM | – |
| O=c1c2ccccc2sn1-c1cc(S(=O)(=O)N2CCOCC2)ccc1N1CCCC1 | active: 0.224 µM | – |
| CC(C)Cn1c(N)c(C(=O)NCC2CCCO2)c2nc3ccccc3nc21 (stereo not drawn) | inconclusive [inhibitor, partial curve] | – |
| CC(=O)n1cc(C(C[N+](=O)[O-])SCCN)c2ccccc21 (stereo not drawn) | active: 25.1 µM | – |
| COc1ccc(CCNC(=O)Cn2cc(C(F)(F)F)cc(Cl)c2=O)cc1 | – | inactive: -11.6% |
| O=c1[nH]c(Cl)nc2c1ncn2C1OC(CO)C(O)C1O (stereo not drawn) | inconclusive [inhibitor, single point] | – |
| Cc1cc(C)cc(-n2nnnc2SCC(=O)Nc2cccc(NC(=O)c3ccco3)c2)c1 | – | inactive: -4.79% |
| COC(=O)c1ccc(NC(=S)Nc2ccccn2)cc1 | – | inactive: -4.64% |
| O=Cc1nc(-c2ccccc2Cl)n2ccccc12 | inconclusive [inhibitor, single point] | – |
| CC(C)(C)c1ccc(-c2noc(CCC(=O)NCC3CCCO3)n2)cc1 (stereo not drawn) | active: 12.6 µM | – |
| O=[n+]1c2c(n([O-])c3cc(F)ccc31)CCCC2 | – | inactive: -21.9% |
| C=CCSc1nnc(Cc2c(C)[nH]c3ccccc23)o1 | – | inactive: -11% |
| COc1cc(Cl)c(S(=O)(=O)N2CCOCC2)cc1Cl | – | inactive: -10.4% |
| CCOC(=O)c1cc(NC(=O)N(CC)CC)c(C)nc1C | inconclusive [inhibitor, partial curve] | – |

| SMILES | Potency | activity change, negative = inhibition |
| --- | --- | --- |
| COc1ccc(N2CCN(C(c3ccccc3)c3nnnn3Cc3ccc(F)cc3)CC2)cc1 (stereo not drawn) | – | inactive: -5.66% |
| COCCCNC(=O)Nc1ccc2c(c1)N(C)C(=O)CS2 | – | inactive: -10.9% |
| Fc1ccc(C(OCCCc2cnc[nH]2)c2ccc(F)cc2)cc1 | – | inactive: -5.26% |
| Cn1c(Cn2c(=O)sc3ccccc32)nnc1SCC(N)=O | – | inactive: -4.16% |
| CCn1c(C)nc2cc(C(=O)n3cc(C(=O)c4cc(F)ccc4O)cn3)ccc21 | inconclusive [inhibitor, partial curve] | – |
| CCCN1CC=C2C(C#N)=C(N)C(C#N)(C#N)C(c3cccc(OC)c3OC)C2C1 (stereo not drawn) | inconclusive [inhibitor, partial curve] | – |
| COc1ccc(-c2nn(-c3ccccc3)cc2/C=C(\C#N)S(=O)(=O)c2ccccc2)cc1OC | – | inactive: -22.2% |
| NC(=O)c1ccc(-c2ccc(Br)cc2)o1 | inconclusive [inhibitor, partial curve] | – |
| Cc1ccc(C)c2nc(SCC(=O)N3CCCc4ccccc43)c(C#N)cc12 | inconclusive [inhibitor, partial curve, poor fit] | – |
| O=C1c2ccccc2C(=O)N1CCCc1c[nH]c2ccc(Cl)cc12 | – | inactive: -9.69% |
| O=C(c1cccc([N+](=O)[O-])c1)N1CCOCC1 | – | inactive: -2.23% |
| CN(C)c1ccc(NC(=O)CC(NCc2ccccn2)C(=O)O)cc1 (stereo not drawn) | – | inactive: 0.521% |
| C=CCNc1nc(-c2sc(NC(C)=O)nc2C)cs1 | inconclusive [inhibitor, single point] | – |
| O=C1Nc2cc(S(=O)(=O)N3CCCC3)ccc2N2CCCC12 (stereo not drawn) | inconclusive [inhibitor, partial curve] | – |
| CCCCCCCCCc1nc(N)n[nH]1 | – | inactive: 2.18% |
| O=C(c1scc2c1CCCC2)N1CCCCC1 | active: 8.91 µM | – |
| CC(C)(C)c1ccc(/C=N/NC(=S)NC2CCCCC2)cc1 | – | inactive: -9.21% |
| C(#Cc1ccc(C#CCN2CCCC2)cc1)CN1CCCC1 | – | inactive: -12.4% |
| COc1cc(C#CC#CCN2CCCCC2)ccc1O | active: 14.1 µM | – |
| CCCC(=O)c1ccc(N2CCOCC2)c(F)c1 | – | inactive: -21.2% |
| FC(F)(F)c1nnc2c(Sc3ccc(Cl)cc3)nc3ccccc3n12 | inconclusive [inhibitor, partial curve] | – |
| O=C(O)CCC(=O)c1ccc2ccc3cccc4ccc1c2c34 | inconclusive [inhibitor, partial curve] | – |
| O=C(c1ccco1)N1CCN(C(c2ccccc2F)c2nnnn2CC2CCCO2)CC1 (stereo not drawn) | – | inactive: -9.88% |
| CCOC(=O)c1sc2nc3n(c(=O)c2c1C)CCC(C)CC3 (stereo not drawn) | active: 25.1 µM | – |
| COc1ccc(C2NC3=C(CCCC3)C(C#N)(C#N)C2(C#N)C#N)cc1 (stereo not drawn) | inconclusive [inhibitor, partial curve] | – |
| O=C1CCC(c2ccc(-n3ccnc3)cc2)=NN1 | – | inactive: -16.4% |
